# In the supplement of paper PMC11417369:
# Some of the results follow.
# Tested on: PfSIP2 AP2 domain 1 (GST-tagged)
# Assay: gcPBM binding intensity (ln(normalized median fluorescence intensity)); higher = stronger DNA binding
# Procedure, shortened: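 GST-tagged P. falciparum DNA-binding domains, expressed in E. coli (about 25 μg on average), were applied for 1 h to an Agilent 4 × 180k array of primer-extended double-stranded 36-bp intergenic genomic probes plus negative controls. The binding buffer was 1× PBS with 1% milk, 0.2 mg/ml BSA, 0.5% salmon testes DNA and 0.03% Triton X-100. Bound protein was detected with Alexa488 anti-GST antibody and scanned at 488 nm. Binding intensity is the highest Masliner-normalised natural-log median intensity across replicate spots of either probe orientation.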
row,Sequence,gcPBM binding intensity (ln)
1,AAAATGTACGCATATACACACACATAAATAGATACG [CACACA_site9124],7.3
2,AAGAAATAATTATTATGTACTTAAAAAAATTAAAAT [XGTACX_site7423],7.16
3,AAGAAATAAATACATACACACATATATAAATAAATA [CACACA_site7559],6.89
4,ATATATATATAATTATATAAAATATATCATATGTTA [XGTACX_negctrl_site47],8.67
5,ACATCATAAAATTTATGTACACATTTTTAATTATAC [XGTACX_site7759],7.26
6,ATCATTTTTATGTACACACACATATACGTTGAATAT [CACACA_site1865],7.32
7,AAGGTATACACTGCTTTATCAAGTTTAACTCTTTTT [XGTACX_negctrl_site118],6.6
8,TATAAAATTTACGTGTGTACATATTTAATAATTTTT [XGTACX_site5001],7.18
9,AAGATATGAGGGAATACACACATATTTATATTTATA [CACACA_site6846],6.7
10,TAAATATAGAAACACACACACATTAATACATATATT [CACACA_site3489],6.92
11,AAATTTGAAATGCATGAACACACACCGCTATAAATG [CACACA_site8230],7.08
12,TAATTTTTTATATATTGTACAAATAATATATGATGT [XGTACX_site268],7.4
13,TTCGTAATTTATATCACACACATATATATATAATAA [CACACA_site3115],7.5
14,CAACTTTATACATATAGTACAAGTTATATTTTATTA [XGTACX_site6651],6.9
15,AACGATTTACATCACTGTACTAATGATATACCTCAT [XGTACX_site7463],6.89
16,TATATATATATATATTGTACTATATAGTATCTTTTT [XGTACX_site1646],9.07
17,TATATATTTTCTTTTGCACACTGTTTTCCTTTTTTT [CACACA_site2739],7.02
18,CTTTCCATATATGATAGTACACGATAAAAAAAAAAA [XGTACX_site5772],7.23
19,AAAGAAATAAGGTGCACACATATACATATATATATA [CACACA_site429],11.9
20,TTTAAAAAAAATTCATATTATATATATATATATTAT [CACACA_negctrl_site1733],7.3
21,TTCTTTTTTATTTTTCAACACACATAATAAATTTCT [CACACA_site8253],7.51
22,TTATAATTTTTCTATTGTACATTTAATAATATATAT [XGTACX_site7326],7.23

row,Sequence,gcPBM binding intensity (ln)
1,TTATACATATTTATATGTACGTAATATAATATTAAT [XGTACX_site6520],6.96
2,ATGAAGAAATAAATGTGTACATATCTTAGTATCATA [XGTACX_site8658],7.21
3,TATTTAATTTATACACGTACATATATAAATAATACA [XGTACX_site1148],7.28
4,TATAATGATGATGATAGTACGTATTAGTATAAAAAA [XGTACX_site9],7.24
5,TCATGGGTGTATTTCACACACGGATAATCATTTATA [CACACA_site4663],6.79
6,AGAAATAAAAAAAAAAATATATATATTATATATATA [CACACA_negctrl_site1799],7.83
7,ATATTTTTTTTTGTTACACACGTTTTTTAAAAAATG [CACACA_site1603],7.4
8,TCATAAAAATAAAAATGTACACATTAGAAATATTGT [XGTACX_site3671],6.87
9,TTACTATAAAATGTCACACATTCTGTTTCCTTACTT [CACACA_site5714],6.7
10,TCAACAAAATTGAAGGAACACACATACATATATATA [CACACA_site7940],7.51
11,TATAAATATCTGTATGCACACATTTTTTTTGGAAAA [CACACA_site4734],8.04
12,ATTTTTTCTCATAAAAACGTGAACGTTTATTTTACA [CACACA_negctrl_site1041],6.95
13,ATTATAAAAGAATTTTTTTTTATTTCATTAAAATAT [CACACA_negctrl_site1137],6.57
14,AGCACATAAATAATTAAACACACATTGTTCTAGACA [CACACA_site8746],6.89
15,AAAAAAATACATACGTGTACCCACATATATGTATCT [XGTACX_site5319],6.67
16,GTTTCTACTTATATAACAGGACACGTGTGAATAATT [TGCATGCA_negctrl_site430],7.26
17,TTGAAGGTGGCAATGTGTACATAGAATAACCAGTGC [XGTACX_site4738],7.19
18,ACAATTGCATCTATCACACATACATACATACATACA [CACACA_site5063],8.23
19,AAAAAAAAAAAACATTGTACGCACATTTTATATGTC [XGTACX_site6974],7
20,GCAAGTCCATGAACGGTGCAGGAATTAACAAAAATA,9.11
21,AATAAAAATAAAAGCACACATAAATATATATATATT [CACACA_site1441],6.95
22,TCATGGCCATTTTCAGTGCATATGTGTATTTAATAT [GTGCAC_site9529],7.92

row,Sequence,gcPBM binding intensity (ln)
1,TGCATAATTAAAAATGGTACACTGTATTTATAATAT [XGTACX_site1575],7.13
2,TATAAATTAAGATAACGTACATATAATAATATAAAC [XGTACX_site487],7.07
3,TGTACAGTATATACAACACACATTTGTATAAATATA [CACACA_site1002],6.93
4,TGTACACCCAGAAATGCACACACATATATATATATA [CACACA_site8716],9.53
5,TATATATATTTTATGTGTACTCAATGTTATAACGCA [XGTACX_site8360],7.37
6,AATAGAGTTGAATGCACACATACAAATTTTTAGTTT [CACACA_site3564],6.92
7,TTATTATATAAAGTTTCACACATTATTTGTTCAAAC [CACACA_site5218],6.72
8,ATATGAAGTATCGAATTAAGGGCAACAAATAAATTA [CACACA_negctrl_site1116],6.96
9,AAAAAAATAATATAAATAATGAAAAGATATAAATAA [GTGCAC_negctrl_site432],6.85
10,AATATAAGCAAATACACACACACATATAAATATGTA [CACACA_site7741],7.06
11,TACATATATAAATATGTACACACATATGTATGATCT [CACACA_site9284],7.08
12,TTATATATGACTAACGGTTTTTTTTTTTTTTTTTTT [CACACA_negctrl_site576],7.95
13,AGTAGTCTGGAGAAGAGTACACAGTATCTGGTAACA [XGTACX_site2032],6.52
14,TAATATCAATTTTTATGTACTTATATATATATATAT [XGTACX_site5879],8.95
15,ATTGAGAGAAAAAAATGTACTTGATCAAAATGGATA [XGTACX_site1649],6.97
16,GTGTATATATGTTATACACACAAAAATATTTTGTAT [CACACA_site265],6.97
17,AAAAATCATATAGGTTGTACGGGTAGTTTATTTTAT [XGTACX_site6936],7.02
18,ACAAAAAAAAAAAAAAAAAAAAAAAAAAAATAATAA [CACACA_negctrl_site1640],6.95
19,AGATCAATAATGACAAGTACACAAAATAACATTTAA [XGTACX_site6968],7
20,AAAATATATTAAGGCACACACATACATATTTATATA [CACACA_site7707],7
21,ATTTTGTAAAAGGTCATACACACATATTCAAAAGAA [CACACA_site2946],7
22,CGCACCCACAGACACACACACACATATATATATATA [CACACA_site2202],9.47

row,Sequence,gcPBM binding intensity (ln)
1,AATATATATTAAATATGTACTTATTTTTTGGTTGCT [XGTACX_site3613],6.99
2,TACATACAGAAACACACACACACATATATATATATA [CACACA_site2919],9.28
3,AAAGAATAATTAAATACACACATATTACAGTAAAAA [CACACA_site2450],6.86
4,ATAAGAAAAGGACACACACACAAAAAAAAAAAAAAA [CACACA_site7351],6.96
5,TGTTCTTATTTTATAAGCATATAATTAATCATAATG [CACACA_negctrl_site1493],6.88
6,TTTATTTATTATTGTTGTACACTTTTTATAAAAAAA [XGTACX_site5114],7.29
7,ATGTATATAATATTATGTACATATATGAAATATTTT [XGTACX_site8168],7.02
8,TAGTTTTTTATAAAATTATTTATATAAAGGTAAAAA [CACACA_negctrl_site490],7.1
9,AATATATTATAATATACACACATATATGCTCTTTAA [CACACA_site4131],7.17
10,ATATATTATATATATTTTAAGTAATTTGCAAAAAAT [GTGCAC_negctrl_site361],7.01
11,ATTTAAAAGAAATAATGTACGAATCATATTTGATAT [XGTACX_site1785],7.01
12,ATAGTATCTGGTAGCTGTACGAGTCGTAGAGTGCAG [XGTACX_site2020],8.66
13,ATTTATTAACCATATACACACATATATTTGTATTTA [CACACA_site6744],7.02
14,TTCCCTAATATTTGTTGTACTTGTTATATTTTTTTT [XGTACX_site5994],7.16
15,TATATTTGTAAGAAGAGTACTAAAAAAAGAATAAAG [XGTACX_site8704],7.49
16,ATATATATATATATATGTACGTACTCAGTTATGCCT [XGTACX_site453],9.2
17,ATACATATATATATATGTACATATGCACATATATAC [XGTACX_site7209],7.25
18,ATAATATATATATATACGCACACTTATGTACGGATT [CACACA_site2120],7.29
19,TTCTATATAATTCAAACATGCACAGGAAATATTATA [TGCATGCA_site290],9.85
20,AACAATGTTTTCTTGTGTACACATCATTAAAGAAAA [XGTACX_site4726],7.37
21,AAGAAAAAAGGGGACAAGGCATATCTATATATACAT [TGCATGCA_negctrl_site172],6.68
22,TATGTAACACATACTTGTACATATATAATTTTTTTA [XGTACX_site6251],6.78
